# Assay results taken from the supplement of paper PMC11417369.
# The other results are listed elsewhere or left out.
# Test system: PF3D7_0420300 AP2 domain 1 (GST-tagged)
# Assay: gcPBM binding intensity (ln(normalized median fluorescence intensity)); higher = stronger DNA binding
# Summary of the method: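 The highest Masliner-normalised natural-log median intensity across replicate spots of either probe orientation is reported as binding intensity. GST-tagged P. falciparum DNA-binding domains expressed in E. coli were applied for 1 h to an Agilent 4 × 180k array of primer-extended double-stranded 36-bp intergenic genomic probes plus negative controls, and bound protein was detected with Alexa488 anti-GST antibody and scanned at 488 nm.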
row,Sequence,gcPBM binding intensity (ln)
1,TTTCTTTTTAAATATATACACACCGGGTGTACATAT [CACACA_site3345],9.29
2,TATATTTATTATAACACACACATATTTATATTATAG [CACACA_site6628],9.61
3,AGGTAATATACTAAATGTACAGAAAAACGAATTTTT [XGTACX_site2977],9.36
4,AATGAAATAATACAATGTACGTTAAAAAAAAATAAA [XGTACX_site7928],9.46
5,TAATATCAAACCTATAGTACATAAGGTATAAAAAAG [XGTACX_site3533],9.29
6,GTATTATTTTATGATGCATGTGTATTTCATATATGC [TGCATGCA_site660],9.19
7,GTTAAGTGTATATATACACACATATGTAATACATGA [CACACA_site3048],9.47
8,TAATTAAAATTATATATTAGAAAAAACATATAAAAC [CACACA_negctrl_site190],9.37
9,ATATGTAGAATAAAAAAAAAAAAAAAAAAAAAAAAT [CACACA_negctrl_site621],9.39
10,AATATTGAAATAACGCGTACAAAAAAAAGTTATATT [XGTACX_site6559],9.47
11,TAAAAATATATGTATACACACATATATATATATATA [CACACA_site3951],9.21
12,AAAAAAAGTGACTCCTTACACACTTTACATAATTTA [CACACA_site820],9.3
13,ATGTTATATTATAAAAGTACATTTTATTTTTATTTA [XGTACX_site4365],9.16
14,ATTTCCTTTTTCTGTTGTACTCATAAAATAATATGT [XGTACX_site7234],9.46
15,TTAATTTATAAAAACACACACAGGTAAAAAGGTGCA [CACACA_site1177],9.74
16,CTTATAATATTACGGGTGCTATAAATACATTATATT,9.39
17,TAAATCAAAAACAACAAGTCATATTAAAGATGGTAT [CACACA_negctrl_site1321],9.51
18,TTGTTTCAAAATTAAACACACACAAAAAAAAAAAAA [CACACA_site8856],9.48
19,TATATTTATATCATCACACATTTTTTTTTTCTTTTT [CACACA_site6150],9.43
20,AAGGAAAACAGTAGGTGTACCAAACGTCCTAGGAAC [XGTACX_site3659],9.58
21,TAATATATAAATATATGTACATAATTAATAGGATAT [XGTACX_site237],9.43
22,GGATATATAAGATACACACACAAATTAAATATAAAA [CACACA_site7333],9.97
23,TATTCCTAATTTAAAAGTACATATATATATATATAT [XGTACX_site3008],9.09

row,Sequence,gcPBM binding intensity (ln)
1,AAAAAAAAAAAAATTACACACATACCTATAAGAATA [CACACA_site7097],9.8
2,TTTTCTTTTTTCTTTTTAACTCTTACATAATAGGTG [CACACA_negctrl_site642],9.03
3,AATATATGTTAAAATGGTACACAATTATTATATATT [XGTACX_site6407],9.43
4,AAAAAAAAAAAAAAGAGTACTTTTTTCACATTCATC [XGTACX_site8795],8.96
5,TAAAATGAATAAAATTGTACTTAATAATATTTTAAA [XGTACX_site5532],9
6,TTCTTTTAAAAATATATTTTAAGAAAATTTAATTTA [GTGCAC_negctrl_site237],8.58
7,GGATAAGAAAAGAAGTGTACATATATATATATATAT [XGTACX_site8290],9.04
8,TTTATTTTTTGAAACACACACAAAAAAAATGATACA [CACACA_site1881],9.49
9,CAAAAAAAAAAACGGGTGCTAAATTTTATTTTTTAT,9.04
10,AAAAAAAAAATATATATATATATATATATATATATA [GTGCAC_negctrl_site467],8.83
11,ATAAAGCACACCGACACACACATATATATATATATA [CACACA_site1047],9.8
12,TATCATGGTTCGGATTGTACATATATGAATTTTTTT [XGTACX_site7478],9.41
13,TTTTTTAAATTTAAAGTGCATTATTATATATTTGTA,9.2
14,CCAGTGTGCACCTTGCGTACATATTAAATTAATTAA [XGTACX_site3729],9.11
15,AAAAAAGAAATAAGGATACACACTATTGATAAAAGT [CACACA_site272],9.84
16,TATATATTATATAAATAAATAAATATATATATTTAT [TGCATGCA_negctrl_site270],8.94
17,AATGATTTTGATTAACGTACGTACAAATATATATAT [XGTACX_site6604],9.17
18,AGACCTATGATATATACACACATATAAATAAATATA [CACACA_site6725],9.52
19,TTATTAAATATAAATATGTATCTTTTATGTTATATT [CACACA_negctrl_site306],9.18
20,AAAAAAAAAAGACACACACACATAGACCTCCAATAG [CACACA_site7646],9.95
21,TATTTTACGACATACCAAAAAAAAAAAAAAAAAATA [CACACA_negctrl_site1254],9.23
22,TAAATCCGCAGGCACACACACATATTAATAAAAAAA [CACACA_site3991],9.77
23,AATGTTAAACTATGATGTACGGTTAAAAATATAATT [XGTACX_site893],9.42

row,Sequence,gcPBM binding intensity (ln)
1,TGATATTATAGATATACACACATGTATGTATTTATA [CACACA_site6758],9.4
2,AAATTTAGTAAAAAATGTACGTAAAATGTAAAATAT [XGTACX_site1314],9.48
3,ATACTAACATTTTTTTGTACATATAACTATAAAATA [XGTACX_site1033],9.16
4,AAGGTAAACGGACACACACACATACAAAAAAAAAAA [CACACA_site5961],10.1
5,ATATATATGTATGTATATATATATATATATGTTTGA [CACACA_negctrl_site107],9.28
6,TTTTTTTTTCTGTATACACACAAAATTTATTTTTTA [CACACA_site2873],9.38
7,TTAATAACGTAATGTAAATGTTTCATACCCTTTTTT [CACACA_negctrl_site988],9.16
8,AAAGAAGGGGGGGGAAAAAAAAATAAAAGAGGAAAA [XGTACX_negctrl_site92],9.59
9,ATAAAATAAAAACATGCACACTTTATTTTTTTTAAG [CACACA_site5545],9.25
10,TGGGGTATTAAAAAAACACACAAAAAAAATATAAAG [CACACA_site1915],9.43
11,GATAATAATAAGTGTACACATATATTTAGAAGAGTA [CACACA_site4245],9.39
12,AAAATGTATATTGGCGCATGTAAACAAATACTATAC [TGCATGCA_site385],9.44
13,TCCTCATTTTATCATACACACTTGTTTATATGTGTG [CACACA_site6548],9.56
14,TATATATATATAATTTGTACACACAAATATGCATAT [XGTACX_site7297],9.38
15,ATATATAATAATTGTAGTACAATTAATAAATAAAAT [XGTACX_site3840],9.42
16,ATACGATTGCAGTCAAAAAGGAAAATATAAAAAAAG [XGTACX_negctrl_site124],9.2
17,AATATTTATAAATTTACACACACACCCGTGAACATA [CACACA_site1910],9.96
18,TTATCATTTTAAATCACACACATATATAAATATGTA [CACACA_site7359],9.32
19,CACATAAATAATTAAACACACATTGTTCTAGACAAT [CACACA_site2378],9.61
20,TTTGAGTTACTATTCACACAAAATGGATAAATTAAT [CACACA_site5626],9.1
21,TATATAGGTATATATACACACAACGGTTATAAATAT [CACACA_site4759],9.74
22,TATAAAGACACGAAAACACACATATGTAAATATATA [CACACA_site8056],9.75
23,AGGATAAAAGTTATGGTGCATTAACCTATTTAAATA,9.14

row,Sequence,gcPBM binding intensity (ln)
1,TACATATTACTATTCAGTACATATTTTTTTTTCATT [XGTACX_site7468],9.33
2,TAGTTTTGAAAACAAACACACAAAAAAAAAAAAAAA [CACACA_site1692],9.05
3,AATATAAAAAATAATACACACACATGGCGACAAAAT [CACACA_site8765],10.2
4,ATGTAAGTAATTATCTGTACACATAATATATATATA [XGTACX_site2618],9.33
5,AATAATAAAAAAAGTGCACACACATAATATATATAT [CACACA_site9100],9.82
6,AACAATATATTGATATTATTTTAAGTGATTATATAT [XGTACX_negctrl_site205],9.22
7,TATAAAAAAATAAAAGGAATATACTTGCAAAGGGTA [CACACA_negctrl_site1438],9.61
8,TTTCAAATGATTAAGTGTACATGTTTGCTTGCTCTT [XGTACX_site4697],9.24
9,TTTTTTTTTGTTATGTTGCACTTTGCCATATTATTA [GTGCAC_site9844],9.45
10,AATTTTATTACTTTTACACACCTATATATCATTCAT [CACACA_site7525],9.76
11,TAGGGATTATACCACACACACATACACATAAATATA [CACACA_site3178],9.96
12,AAGAATAAGGAAAAATGTACAGAATGCACATATGAA [XGTACX_site4705],9.4
13,ACCTTAAATAATACATGTACAAAAAAATTTATAATA [XGTACX_site1043],9.2
14,AAAAAAAATACAAAAAGTACAAAAAATACAAAAAAA [XGTACX_site8844],9.64
15,ATGTATATATATATATGTACATATTTTTTATATGTA [XGTACX_site441],9.2
16,TTCTTTTTTTAAAGAAGTACTATATTTTAAATTATA [XGTACX_site5059],8.83
17,TTTAAAATAAATTAATAGAACAAAAATAAAATGATT [GTGCAC_negctrl_site375],9.39
18,TTAAATAATGCCACCAGTACCCACTGAAAGAAAAAA [XGTACX_site5013],9.23
19,CAATTGATATTGAAATGTACTTTTTAGATGAACCTT [XGTACX_site2354],8.96
20,TATATTAAAATTTACTGTACTTTTTTTATTTTAAAA [XGTACX_site4077],8.92
